# Data from the supplement of paper PMC8728848.
# Some of the results follow.
# B1: Gal 4 (Mus musculus), P56470 (protein)
# chain: MAYVPAPGYQPTYNPTLPYYQPIPGGLNVGMSVYIQGVASEHMKRFFVNFVVGQDPGSDVAFHFNPRFDGWDKVVFNTLQGGKWGSEERKRSMPFKKGAAFELVFIVLAEHYKVVVNGNPFYEYGHRLPLQMVTHLQVDGDLQLQSINFIGGQPLRPQGPPMMPPYPGPGHCHQQLNSLPTMEGPPTFNPPVPYFGRLQGGLTARRTIIIKGYVPPTGKSFAINFKVGSSGDIALHINPRMGNGTVVRNSLLNGSWGSEEKKITHNPFGPGQFFDLSIRCGLDRFKVYANGQHLFDFAHRLSAFQRVDTLEIQGDVTLSYVQI
# Key:
# Assay in all cases: glycan array binding signal (z-score within array); higher = stronger binding
# Details in all cases: glycan notation: IUPAC condensed, linker removed
# [1] = target: Fuc(a1-2)[Gal(a1-3)]Gal(b1-3)GlcNAc(b1-6)GalNAc
# Summary of the method: (§1)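 Glycan array binding is given as a within-array Z-score, which can be read as non-binding when negative. The arrays, 3228 of them, came from the Consortium for Functional Glycomics database and were retained only where the protein sequence was available. Z-scores were averaged across arrays of the same protein sequence at different concentrations or buffers and across linkers.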
# [2] = target: Fuc(a1-2)[Gal(a1-3)]Gal(b1-4)Glc
# Summary of the method: as §1
# [3] = target: Fuc(a1-2)[Gal(a1-3)]Gal(b1-4)GlcNAc
# Summary of the method: as §1
# [4] = target: Fuc(a1-2)[Gal(a1-3)]Gal(b1-4)GlcNAc(b1-2)Man
# Summary of the method: as §1
# [5] = target: Fuc(a1-2)[Gal(a1-3)]Gal(b1-4)GlcNAc(b1-2)Man(a1-3)[Fuc(a1-2)[Gal(a1-3)]Gal(b1-4)GlcNAc(b1-2)Man(a1-6)]Man(b1-4)GlcNAc(b1-4)GlcNAc
# Summary of the method: as §1
# [6] = target: Fuc(a1-2)[Gal(a1-3)]Gal(b1-4)GlcNAc(b1-2)Man(a1-3)[Fuc(a1-2)[Gal(a1-3)]Gal(b1-4)GlcNAc(b1-2)Man(a1-6)]Man(b1-4)GlcNAc(b1-4)[Fuc(a1-6)]GlcNAc
# Summary of the method: as §1
# [7] = target: Fuc(a1-2)[Gal(a1-3)]Gal(b1-4)GlcNAc(b1-3)GalNAc
# Summary of the method: as §1
# [8] = target: Fuc(a1-2)[Gal(a1-3)]Gal(b1-4)GlcNAc(b1-6)GalNAc
# Summary of the method: as §1
# [9] = target: Fuc(a1-2)[Gal(a1-3)]Gal(b1-4)[Fuc(a1-3)]Glc
# Summary of the method: as §1
# [10] = target: Fuc(a1-2)[Gal(a1-3)]Gal(b1-4)[Fuc(a1-3)]GlcNAc
# Summary of the method: as §1
# [11] = target: Fuc(a1-2)[Gal(a1-3)]Gal(b1-4)[Fuc(a1-3)]GlcNAc(b1-3)GalNAc
# Summary of the method: as §1
# [12] = target: Fuc(a1-2)[Gal(a1-4)]Gal(b1-4)GlcNAc
# Summary of the method: as §1
# [13] = target: Fuc(a1-2)[GalNAc(a1-3)]Gal
# Summary of the method: as §1
# [14] = target: Fuc(a1-2)[GalNAc(a1-3)]Gal(b1-3)GalNAc(a1-3)[Fuc(a1-2)]Gal(b1-4)GlcNAc
# Summary of the method: as §1
# [15] = target: Fuc(a1-2)[GalNAc(a1-3)]Gal(b1-3)GalNAc(b1-3)Gal(a1-4)Gal(b1-4)Glc
# Summary of the method: as §1
# [16] = target: Fuc(a1-2)[GalNAc(a1-3)]Gal(b1-3)GlcNAc
# Summary of the method: as §1
# [17] = target: Fuc(a1-2)[GalNAc(a1-3)]Gal(b1-3)GlcNAc(b1-2)Man(a1-3)[Fuc(a1-2)[GalNAc(a1-3)]Gal(b1-3)GlcNAc(b1-2)Man(a1-6)]Man(b1-4)GlcNAc(b1-4)GlcNAc
# Summary of the method: as §1
# [18] = target: Fuc(a1-2)[GalNAc(a1-3)]Gal(b1-3)GlcNAc(b1-2)Man(a1-3)[Fuc(a1-2)[GalNAc(a1-3)]Gal(b1-3)GlcNAc(b1-2)Man(a1-6)]Man(b1-4)GlcNAc(b1-4)[Fuc(a1-6)]GlcNAc
# Summary of the method: as §1
# [19] = target: Fuc(a1-2)[GalNAc(a1-3)]Gal(b1-3)GlcNAc(b1-3)GalNAc
# Summary of the method: as §1
# [20] = target: Fuc(a1-2)[GalNAc(a1-3)]Gal(b1-3)GlcNAc(b1-6)GalNAc
# Summary of the method: as §1
# [21] = target: Fuc(a1-2)[GalNAc(a1-3)]Gal(b1-4)Glc
# Summary of the method: as §1
# [22] = target: Fuc(a1-2)[GalNAc(a1-3)]Gal(b1-4)GlcNAc
# Summary of the method: as §1
# [23] = target: Fuc(a1-2)[GalNAc(a1-3)]Gal(b1-4)GlcNAc(b1-2)Man
# Summary of the method: as §1
# [24] = target: Fuc(a1-2)[GalNAc(a1-3)]Gal(b1-4)GlcNAc(b1-2)Man(a1-3)[Fuc(a1-2)[GalNAc(a1-3)]Gal(b1-4)GlcNAc(b1-2)Man(a1-6)]Man(b1-4)GlcNAc(b1-4)GlcNAc
# Summary of the method: as §1
# [25] = target: Fuc(a1-2)[GalNAc(a1-3)]Gal(b1-4)GlcNAc(b1-2)Man(a1-3)[Fuc(a1-2)[GalNAc(a1-3)]Gal(b1-4)GlcNAc(b1-2)Man(a1-6)]Man(b1-4)GlcNAc(b1-4)[Fuc(a1-6)]GlcNAc
# Summary of the method: as §1
# [26] = target: Fuc(a1-2)[GalNAc(a1-3)]Gal(b1-4)GlcNAc(b1-3)Gal(b1-4)GlcNAc
# Summary of the method: as §1
# [27] = target: Fuc(a1-2)[GalNAc(a1-3)]Gal(b1-4)GlcNAc(b1-3)Gal(b1-4)GlcNAc(b1-3)Gal(b1-4)GlcNAc
# Summary of the method: as §1
# [28] = target: Fuc(a1-2)[GalNAc(a1-3)]Gal(b1-4)GlcNAc(b1-3)GalNAc
# Summary of the method: as §1
# [29] = target: Fuc(a1-2)[GalNAc(a1-3)]Gal(b1-4)GlcNAc(b1-3)[Fuc(a1-2)[GalNAc(a1-3)]Gal(b1-4)GlcNAc(b1-6)]GalNAc
# Summary of the method: as §1
# [30] = target: Fuc(a1-2)[GalNAc(a1-3)]Gal(b1-4)GlcNAc(b1-6)GalNAc
# Summary of the method: as §1
# [31] = target: Fuc(a1-2)[GalNAc(a1-3)]Gal(b1-4)[Fuc(a1-3)]GlcNAc
# Summary of the method: as §1
# [32] = target: Fuc(a1-2)[GalNAc(a1-3)]Gal(b1-4)[Fuc(a1-3)]GlcNAc(b1-3)GalNAc
# Summary of the method: as §1
# [33] = target: Fuc(a1-2)[GalNAc(a1-4)]Gal(b1-4)GlcNAc
# Summary of the method: as §1
# [34] = target: Fuc(a1-2)[GalNAc(b1-3)]Gal
# Summary of the method: as §1
# Fuc(a1-3)GlcNAc = target: Fuc(a1-3)GlcNAc
# Summary of the method: as §1
# [35] = target: Fuc(a1-3)[Gal(b1-4)]Glc6S
# Summary of the method: as §1
# [36] = target: Fuc(a1-3)[Gal(b1-4)]GlcNAc
# Summary of the method: as §1
binder,measurement,setting,value
B1,glycan array binding signal (z-score),[1],2.83
same,glycan array binding signal (z-score),[2],2.67
same,glycan array binding signal (z-score),[3],1.85
same,glycan array binding signal (z-score),[4],2.53
same,glycan array binding signal (z-score),[5],1.96
same,glycan array binding signal (z-score),[6],0.436
same,glycan array binding signal (z-score),[7],0.435
same,glycan array binding signal (z-score),[8],-0.301
same,glycan array binding signal (z-score),[9],-0.242
same,glycan array binding signal (z-score),[10],-0.266
same,glycan array binding signal (z-score),[11],-0.221
same,glycan array binding signal (z-score),[12],-0.24
same,glycan array binding signal (z-score),[13],-0.239
same,glycan array binding signal (z-score),[14],3.22
same,glycan array binding signal (z-score),[15],-0.256
same,glycan array binding signal (z-score),[16],4.51
same,glycan array binding signal (z-score),[17],6.91
same,glycan array binding signal (z-score),[18],1
same,glycan array binding signal (z-score),[19],1.18
same,glycan array binding signal (z-score),[20],3.37
same,glycan array binding signal (z-score),[21],5.4
same,glycan array binding signal (z-score),[22],3.27
same,glycan array binding signal (z-score),[23],4.19
same,glycan array binding signal (z-score),[24],3.77
same,glycan array binding signal (z-score),[25],0.197
same,glycan array binding signal (z-score),[26],4.64
same,glycan array binding signal (z-score),[27],4.02
same,glycan array binding signal (z-score),[28],0.726
same,glycan array binding signal (z-score),[29],2.04
same,glycan array binding signal (z-score),[30],0.735
same,glycan array binding signal (z-score),[31],-0.226
same,glycan array binding signal (z-score),[32],-0.196
same,glycan array binding signal (z-score),[33],-0.226
same,glycan array binding signal (z-score),[34],-0.221
same,glycan array binding signal (z-score),Fuc(a1-3)GlcNAc,-0.234
same,glycan array binding signal (z-score),[35],-0.18
same,glycan array binding signal (z-score),[36],-0.236
